Assay results from the supplement of paper PMC11876631.
± gives the standard deviation of the averaged measurements. Laboratory Escherichia coli strains with one amino-acid change in an essential protein, pooled on minimal glucose agar with carbenicillin or gentamicin at twice the control MIC (plus kanamycin and chloramphenicol for the plasmids), 48 h. Fold change of barcode share against drug-free plates; higher = less susceptible. Active = above 20 in both replicates (the paper's putatively resistant). '<' = one read or none on drug, '>' = one read or none on a drug-free plate. Shares are relative, so most strains fall below 1 when a few take over. Listed are strains with at least 15 reads on both drug-free plates, and hits; most hits rest on fewer reference reads. Replicate rank correlation about 0.5. Edits are read from barcodes.

Target: Escherichia coli (laboratory strain)
Assay: barcode share on antibiotic plates over drug-free plates; higher = less susceptible
Protocol: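 A pool of E. coli strains, each edited to carry one amino-acid change in an essential protein, was grown for 48 h on minimal glucose agar with or without antibiotic; strain barcodes were sequenced; mean of two replicates.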

[1] = antibiotic: carbenicillin, 2× MIC (3.1 µg/mL)
[2] = antibiotic: gentamicin, 2× MIC (MIC 0.45 µg/mL)

Protein | fold change of barcode share [1] | fold change of barcode share [2]
cysG I440A (protein) MDHLPIFCQLRDRDCLIVGGGDVAERKARLLLDAGARLTVNALAFIPQFTAWADAGMLTLVEGPFDESLLDTCWLAIAATDDDALNQRVSEAAEARRIFCNVVDAPKAASFIMPSIIDRSPLMVAVSSGGTSPVLARLLREKLESLLPLHLGQVAKYAGQLRGRVKQQFATMGERRRFWEKLFVNDRLAQSLANNDQKAITETTEQLINEPLDHRGEVVLVGAGPGDAGLLTLKGLQQIQQADVVVYDRLVSDDIMNLVRRDADRVFVGKRAGYHCVPQEEINQILLREAQKGKRVVRLKGGDPFIFGRGGEELETLCNAGIPFSVVPGITAASGCSAYSGIPLTHRDYAQSVRLITGHLKTGGELDWENLAAEKQTLVFYMGLNQAATIQQKLIEHGMPGEMPVAIVENGTAVTQRVIDGTLTQLGELAQQMNSPSLIAIGRVVGLRDKLNWFSNH | 0.671 ± 0.13 | 0.129 ± 0.16
cysG I439A (protein) MDHLPIFCQLRDRDCLIVGGGDVAERKARLLLDAGARLTVNALAFIPQFTAWADAGMLTLVEGPFDESLLDTCWLAIAATDDDALNQRVSEAAEARRIFCNVVDAPKAASFIMPSIIDRSPLMVAVSSGGTSPVLARLLREKLESLLPLHLGQVAKYAGQLRGRVKQQFATMGERRRFWEKLFVNDRLAQSLANNDQKAITETTEQLINEPLDHRGEVVLVGAGPGDAGLLTLKGLQQIQQADVVVYDRLVSDDIMNLVRRDADRVFVGKRAGYHCVPQEEINQILLREAQKGKRVVRLKGGDPFIFGRGGEELETLCNAGIPFSVVPGITAASGCSAYSGIPLTHRDYAQSVRLITGHLKTGGELDWENLAAEKQTLVFYMGLNQAATIQQKLIEHGMPGEMPVAIVENGTAVTQRVIDGTLTQLGELAQQMNSPSLAIIGRVVGLRDKLNWFSNH | 0.402 ± 0.12 | 0.00934 ± 0.0056
cysG I440P (protein) MDHLPIFCQLRDRDCLIVGGGDVAERKARLLLDAGARLTVNALAFIPQFTAWADAGMLTLVEGPFDESLLDTCWLAIAATDDDALNQRVSEAAEARRIFCNVVDAPKAASFIMPSIIDRSPLMVAVSSGGTSPVLARLLREKLESLLPLHLGQVAKYAGQLRGRVKQQFATMGERRRFWEKLFVNDRLAQSLANNDQKAITETTEQLINEPLDHRGEVVLVGAGPGDAGLLTLKGLQQIQQADVVVYDRLVSDDIMNLVRRDADRVFVGKRAGYHCVPQEEINQILLREAQKGKRVVRLKGGDPFIFGRGGEELETLCNAGIPFSVVPGITAASGCSAYSGIPLTHRDYAQSVRLITGHLKTGGELDWENLAAEKQTLVFYMGLNQAATIQQKLIEHGMPGEMPVAIVENGTAVTQRVIDGTLTQLGELAQQMNSPSLIPIGRVVGLRDKLNWFSNH | > 29.7 [active] | 
cysG I439W (protein) MDHLPIFCQLRDRDCLIVGGGDVAERKARLLLDAGARLTVNALAFIPQFTAWADAGMLTLVEGPFDESLLDTCWLAIAATDDDALNQRVSEAAEARRIFCNVVDAPKAASFIMPSIIDRSPLMVAVSSGGTSPVLARLLREKLESLLPLHLGQVAKYAGQLRGRVKQQFATMGERRRFWEKLFVNDRLAQSLANNDQKAITETTEQLINEPLDHRGEVVLVGAGPGDAGLLTLKGLQQIQQADVVVYDRLVSDDIMNLVRRDADRVFVGKRAGYHCVPQEEINQILLREAQKGKRVVRLKGGDPFIFGRGGEELETLCNAGIPFSVVPGITAASGCSAYSGIPLTHRDYAQSVRLITGHLKTGGELDWENLAAEKQTLVFYMGLNQAATIQQKLIEHGMPGEMPVAIVENGTAVTQRVIDGTLTQLGELAQQMNSPSLWIIGRVVGLRDKLNWFSNH | 0.783 ± 0.31 | 0.0188 ± 0.017
cysG I439Q (protein) MDHLPIFCQLRDRDCLIVGGGDVAERKARLLLDAGARLTVNALAFIPQFTAWADAGMLTLVEGPFDESLLDTCWLAIAATDDDALNQRVSEAAEARRIFCNVVDAPKAASFIMPSIIDRSPLMVAVSSGGTSPVLARLLREKLESLLPLHLGQVAKYAGQLRGRVKQQFATMGERRRFWEKLFVNDRLAQSLANNDQKAITETTEQLINEPLDHRGEVVLVGAGPGDAGLLTLKGLQQIQQADVVVYDRLVSDDIMNLVRRDADRVFVGKRAGYHCVPQEEINQILLREAQKGKRVVRLKGGDPFIFGRGGEELETLCNAGIPFSVVPGITAASGCSAYSGIPLTHRDYAQSVRLITGHLKTGGELDWENLAAEKQTLVFYMGLNQAATIQQKLIEHGMPGEMPVAIVENGTAVTQRVIDGTLTQLGELAQQMNSPSLQIIGRVVGLRDKLNWFSNH | 0.521 ± 0.34 | 0.00932 ± 0.00094
cysG I440W (protein) MDHLPIFCQLRDRDCLIVGGGDVAERKARLLLDAGARLTVNALAFIPQFTAWADAGMLTLVEGPFDESLLDTCWLAIAATDDDALNQRVSEAAEARRIFCNVVDAPKAASFIMPSIIDRSPLMVAVSSGGTSPVLARLLREKLESLLPLHLGQVAKYAGQLRGRVKQQFATMGERRRFWEKLFVNDRLAQSLANNDQKAITETTEQLINEPLDHRGEVVLVGAGPGDAGLLTLKGLQQIQQADVVVYDRLVSDDIMNLVRRDADRVFVGKRAGYHCVPQEEINQILLREAQKGKRVVRLKGGDPFIFGRGGEELETLCNAGIPFSVVPGITAASGCSAYSGIPLTHRDYAQSVRLITGHLKTGGELDWENLAAEKQTLVFYMGLNQAATIQQKLIEHGMPGEMPVAIVENGTAVTQRVIDGTLTQLGELAQQMNSPSLIWIGRVVGLRDKLNWFSNH | 1.16 ± 0.46 | 
